Source: PubChem BioAssay (NCATS)
Several values for one entry are separate records, joined by “and”; a condition that tells them apart may be missing. Identical values can stand only once. The inconclusive results got no clear call from the source; some entries with a clear call stand among them for comparison. A potency beside an inconclusive call is a rough fit, not a confirmed value. Activity calls are given as the source filed them. Calls follow the shape of the dose curve; as a rule, active = well fitted inhibition curve with a large enough effect; inconclusive = small, poorly fitted or top-dose-only effect, or effect the other way; inactive = flat fitted curve, though single readings scatter.

Experiment: qHTS for Inhibitors of Plasmodium falciparum (GB4) proliferation (AID 504315); also: nearly all actives have a fitted effect of over 50% in size;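 as to activity change, negative = inhibition: 0% = DMSO vehicle and -100% = 0.29 µM artemisinin control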
Details: P. falciparum GB4 in erythrocytes, SYBR Green DNA, 72 h; activity change, negative = inhibition: at 6.7 µM (top of the series)
Source text: Plasmodium falciparum is a virulent malarial parasite that kills 1-2 million people worldwide each year. Malaria not only inflicts tremendous suffering and morbidity on the human population, but has dramatically influenced the course of civilization with profound sociological and economic implications (Shah, S. 2010). Transmitted by mosquitoes, the sporozoite form of the parasite enters the blood stream to infect hepatocytes, where they become merozoites that infect red blood cells (erythrocytes). Within erythrocytes, merozoites begin a […] cycle of growth and division, after which the parasite is released to infect new red blood cells. Gametocytes, which form within erythrocytes as well, circulate in the bloodstream and are ingested by the mosquito, thereby completing the life cycle (see CDC website). To profile malarial lines for differential chemical responses and to identify inhibitors of malarial growth, an assay that measures P. falciparum growth and replication within erythrocytes was employed. This assay uses a DNA binding fluorescent dye (SYBR Green) to detect parasite DNA following cell lysis. Because mature erythrocytes lack DNA, only Plasmodium-derived DNA is detected. The P. falciparum line cp250, derived from a malarial isolate from Cambodia, (Mu, J., et al. 2010) was added to the panel of lines, Dd2, HB3, 7G8 and GB4 in this study. Laboratory of Assay Development and Screening Technology [ADST] and NIH Chemical Genomics Center [NCGC] Boston University, Chemistry Department, Center for Chemical Methodology and Library Development [CMLD-BU] NIH National Institute of Allergy and Infectious Diseases [NIAID]
ADST Assay Protocol Summary: The 1536-well SYBR Green viability assay was based on the method of Bennett et al (2004) and described previously in 1536-well format (Yuan J., et al. 2009). For screening 3 ul culture medium was dispensed into 1536 well black clear bottom plates (Aurora Biotechnologies) using a Multidrop Combi (Thermo Fisher Scientific Inc.), 23 nL compounds in DMSO were added by a pin transfer (Cleveland, P.H. and Koutz, P.J, 2005) using a pin tool-based delivery system (Kalypsys), and 5 ul of erythrocytes infected with P. falciparum one of five lines (cp250, Dd2, HB3, 7G8 or GB4, 0.3% parasitemia, 2.5% hematocrit final concentration) were added. The plates were incubated at 37C in a humidified incubator in 5% CO2 for 72 h, and 2 ul lysis buffer (20 mM Tris HCl, 10 mM EDTA, 0.16% saponin, 1.6% triton X, 10X SYBR Green I (supplied as 10,000X final concentration by Invitrogen) was added to each well. The plates were mixed for 25 sec with gentle shaking and incubated overnight at room temperature in the dark. The following morning, fluorescence intensity at 485(14) nm excitation and 535(25) nm emission wavelengths was measured on an EnVision (Perkin Elmer) plate reader. Plate reads were normalized relative to the control inhibitor (0.29 uM artemisinin) and vehicle (DMSO) wells present on each plate and then corrected by an algorithm using vehicle-only control plates at the beginning and end of the compound plate stack. References Shah, S. (2010). The Fever: how malaria has ruled humankind for 500,000 years. New York, Sarah Crichton Books. CDC web site, http://www.cdc.gov/malaria/about/biology/index.html Mu, J., Myers, R.A., Jiang, H., Liu, S., Ricklefs, S., Waisberg, M., Chotivanich, K., Wilairatana, P., Krudsood, S., White, N.J., et Plasmodium falciparum genome-wide scans for positive selection, recombination hot spots and resistance to antimalarial drugs Nature Genetics 2010, 42, pp 268-271 Bennett TN, Paguio, M., Gligorijevic, B., Seudieu, C., Kosar, A. D., Davidson, E., and Roepe, P. D. Novel, rapid, and inexpensive cell-based quantification of antimalarial drug efficacy Antimicrobial Agents Chemother. 2004, 48(5): pp 1807-10 Yuan J, Johnson RL, Huang RL, Wichterman J, Jiang HY, Hayton K, Fidock DA, Wellems TE, Inglese J, Austin CP, Su XZ. […]
Potency is read from the fitted curve at half-maximal effect; tags tell the direction and shape of the fitted curve.

Row | Structure (SMILES) | Potency | activity change, negative = inhibition
1 | CC#CCN1c2ccccc2[C@]23C[C@@H](C(=O)OC)N(S(=O)(=O)c4ccc([N+](=O)[O-])cc4)C2=NC(C(=O)OC)=C(C(=O)OC)[C@H]13 | inconclusive: 1.9 µM [inhibitor, single point] | 
2 | C=CCN1C=C2C(=O)C(C)(OC(=O)c3cccs3)C(=O)C=C2C=C1CCCC(=O)OC (stereo not given) |  | inactive: 2.62%
3 | Cc1ccc(S(=O)(=O)NC(CCc2ccccc2)CC(=O)C(C)(C)C)cc1 (stereo not given) |  | inactive: -4.86%
4 | COC(=O)N[C@@H](c1cccc(F)c1)[C@@H](C)[N+](=O)[O-] | inconclusive: 0.0169 µM [activator, full curve, poor fit] | 
5 | C=CC[C@H]1C(=O)N2[C@@H](C[C@@H](C)[C@@H]2c2ccccc2)[C@@H](CC=C)C(=O)N2[C@H]1C[C@@H](C)[C@@H]2c1ccccc1 | inconclusive: 1.51 µM [inhibitor, partial curve] | 
6 | CCN1C(=O)N(S(=O)(=O)c2ccc(C)cc2)[C@@H](c2ccccc2)C(C(=O)OC)=C1C | inconclusive: 0.849 µM [inhibitor, partial curve, poor fit] | 
7 | COc1ccc([C@]23Cc4ccccc4[C@H](O2)c2c(cc(C)n(Cc4ccccc4)c2=O)O3)cc1 | active: 2.13 µM | 
8 | CCN1C(=NCc2ccc(OC)cc2)NC(c2cccc(C(F)(F)F)c2)C(C(=O)OC)=C1C (stereo not given) | inconclusive: 1.51 µM [inhibitor, partial curve] | 
9 | C[C@@H]1CC2=CCCC2[C@]2(O1)C(=O)N(Cc1ccc(F)cc1)c1cccc(Br)c12 (stereo not given in full) | inconclusive: 2.39 µM [inhibitor, single point] | 
10 | COC(=O)C(C(=O)OC)[C@@H]1O[C@@]23COCC[C@]2(C)[C@@H]3c2ccccc21 | inconclusive: 0.0005 µM [inhibitor] | 
11 | CCN(CC)CCCN1C(=O)C2=C(C1=O)C1N(C)c3ccccc3[C@@]13C[C@@H](CO)N(C(=O)CCC(=O)OC)C3=N2 (stereo not given in full) | inconclusive: 3.38 µM [inhibitor, partial curve, poor fit] | 
12 | C=CCNC(=O)[C@H]1C=C(OC)C(=O)C[C@H](c2ccccc2)[C@H]1C |  | inactive: 2.14%
13 | CCCCC1=CC2=C(c3ccco3)C(=O)C(C)(OC(=O)c3ccc(OC)cc3)C(=O)C2=CN1CC1CC1 (stereo not given) | inactive | 
14 | COc1ccc([C@]23Cc4cc(C#N)ccc4[C@H](O2)c2c(c4ccc(OC)cc4oc2=O)O3)cc1 | inconclusive: 1.9 µM [inhibitor, single point] | 
15 | CCCC[C@]12Cc3cc(C#N)ccc3[C@H](O1)c1c(cc(-c3ccccc3)oc1=O)O2 | inconclusive: 1.9 µM [inhibitor, partial curve, poor fit] | 
16 | CC1=CC[C@@H](C)O[C@@]2(C1)C(=O)N(Cc1ccc(Br)cc1)c1ccccc12 |  | inactive: -3.95%
17 | CCOC(=O)NN=C1C[C@@H](O)[C@@H](O)[C@@H]2[C@H]3C(=O)N(Cc4ccc5c(c4)OCO5)C(=O)[C@@H]3CC[C@H]12 |  | inconclusive: 16.9% [activator]
18 | COC(=O)[C@H](COC(C)(C)C)NC(=O)O[C@@H]1C(=O)c2cc(OC)ccc2O[C@H]1c1cccc(OC)c1 |  | inactive: -4.51%
19 | CC(C)=CCN1C(=O)[C@@]2(CC(C)=C[C@@H](COCc3ccccc3)O2)c2ccccc21 |  | inactive: -9.53%
20 | CC(=O)OC[C@H]1O[C@@H](ON=C2C[C@@H](O)[C@@H](O)[C@@H]3[C@H]4C(=O)N(C5CCCCC5)C(=O)[C@@H]4CC[C@@H]23)[C@H](OC(C)=O)[C@@H](OC(C)=O)[C@H]1OC(C)=O |  | inactive: 13.4%

Row | Structure (SMILES) | Potency | activity change, negative = inhibition
21 | COc1cc(CO[C@H]2C=C[C@@H](c3ccccc3)O[C@H]2CO)cc(OC)c1 |  | inactive: -2.99%
22 | COC(=O)N[C@H](c1ccccc1)C(C(=O)OC)C(=O)OC | active: 1.51 µM | 
23 | O=C1OC2(CCCCC2)CC2=C1[C@H]1O[C@](CCCCN3C(=O)c4ccccc4C3=O)(Cc3ccccc31)O2 | active: 1.69 µM | 
24 | COCOc1cc(OC)ccc1C(=O)C=Cc1ccc([N+](=O)[O-])cc1 | active: 1.69 µM | 
25 | COC(=O)C1=C(C(=O)OC)[C@@H]2N(C)c3ccc(OC)cc3[C@@]23C[C@@H](C(=O)OC)N(C(=O)C2CCC2)C3=N1 |  | inactive: -13.1%
26 | O=C1Nc2cccc(Br)c2[C@@]12O[C@H](COc1ccccc1)CC1=CCCC12 (stereo not given in full) |  | inactive: -0.702%
27 | CCC=C1C(=O)[C@]2(C(=O)c3ccccc3)C[C@H]3CCC(CCC)(C2=O)[C@@]13OC | inconclusive: 0.953 µM [inhibitor, single point] | 
28 | COc1ccc(-c2nc3c(c4c2C[C@H](c2ccccc2)OC4)CN(C(=O)Nc2cccc(C#N)c2)CC3)c(C)c1 | inconclusive: 0.953 µM [inhibitor, partial curve] | 
29 | CCCCS(=O)(=O)N1CCc2nc(COc3ccccc3)c3c(c2C1)CO[C@@H](C)C3 | inconclusive: 0.0005 µM [activator] | 
30 | C=CCOC(=O)[C@H](O)[C@@H](O)C(=O)OCC=C |  | inactive: 14.6%
31 | CC(C)CN1C=C2C(=O)C(C)(OC(=O)CCc3ccccc3)C(=O)C=C2C=C1c1ccc(C#N)cc1 (stereo not given) | inconclusive: 0.478 µM [inhibitor, partial curve, poor fit] | 
32 | COC(=O)CC=C[C@@H](C)[C@@H](C=NOC[C@H]1O[C@H](c2ccccc2)C=C[C@H]1Oc1ccc(OC)cc1)N[S+](=O)([O-])c1ccc(C)cc1 |  | inactive: -11.4%
33 | Cc1cc2c(c(=O)n1Cc1ccccc1)[C@H]1O[C@](c3ccsc3)(Cc3cc(C#N)ccc31)O2 | inconclusive: 1.51 µM [inhibitor, partial curve] | 
34 | COC(=O)C1=C(C)N(Cc2ccccc2)C(=NCCc2ccccn2)NC1c1cccc(F)c1 (stereo not given) | inconclusive: 2.13 µM [inhibitor, partial curve] | 
35 | CC(=O)Nc1ccc(S(=O)(=O)N2CCc3nc(-c4ccccc4)c4c(c3C2)CO[C@@H](C)C4)cc1 | inconclusive: 1.2 µM [inhibitor, partial curve, poor fit] and inconclusive: 4.26 µM [inhibitor, partial curve, poor fit] | 
36 | COC1=C[C@H](C(=O)NC2CCN(Cc3ccccc3)CC2)[C@H](C)[C@@H](c2ccccc2)CC1=O | inconclusive: 0.757 µM [inhibitor, single point] | 
37 | Cc1cc(C)c(-c2cc([C@H](C)ON=C[C@@H](C)[C@H](OCc3ccccc3)C(C)C)on2)c(C)c1 | inconclusive: 4.78 µM [inhibitor, single point] | 
38 | COc1cccc([C@@H]2Oc3ccc(Br)cc3C(=O)[C@@H]2O)c1 |  | inactive: 1.02%
39 | CCCC[C@@H]1CN2[C@@H](CC[C@H](C)[C@@H]2c2ccc(Br)cc2)C(=O)O1 |  | inactive: 2.28%
40 | C=CCC1(O)C=CCC2C3C4C(OC(C)(C)C)C2C1C34 (stereo not given) |  | inactive: 7.98%
